The list shows a part of the results.
These compounds were tested on HSkMC (human skeletal muscle cells) (assay: cytotoxicity call (relative viability < 0.9)). Settings: 10 µM.
With COc1ccc(NC(=O)N(C)C[C@H]2Oc3ccc(NS(=O)(=O)c4c(C)noc4C)cc3CC(=O)N([C@H](C)CO)C[C@@H]2C)cc1 the cytotoxicity call was “inactive”. With C[C@@H]1CN([C@@H](C)CO)C(=O)c2cc(NS(=O)(=O)c3ccc(Cl)cc3)ccc2O[C@@H](C)CCCCO[C@@H]1CN(C)Cc1ccc(C(=O)O)cc1 the cytotoxicity call was “inactive”. In the case of C=C1C(=O)C(O)[C@H]2O[C@H]2C1=O (stereo not given in full), the cytotoxicity call is reported as “inactive”. For C[C@H](CO)N1C[C@H](C)[C@H](CN(C)S(=O)(=O)c2cn(C)cn2)Oc2c(NC(=O)CCCCCC(=O)Nc3ccccc3N)cccc2C1=O, the cytotoxicity call was “inactive”. With O=C(CN1CCOCC1)NCC[C@H]1CC[C@@H](NC(=O)c2ccc3c(c2)OCO3)[C@H](CO)O1 the cytotoxicity call was “inactive”. Nc1ncc(O)cn1 was tested, and the cytotoxicity call was “inactive”. C[C@H](CO)N1C[C@H](C)[C@@H](CN(C)Cc2ccc(Cl)c(Cl)c2)Oc2c(NC(=O)CCCCCC(=O)Nc3ccccc3N)cccc2C1=O was tested, and the cytotoxicity call was “inactive”. With COCC(=O)N1C[C@@H](C)[C@@H](OC)CN(C)C(=O)c2cc(NC(=O)c3ccc(OC)cc3)ccc2OC[C@@H]1C the cytotoxicity call was “inactive”. In the case of Cc1noc(C)c1NC(=O)Nc1ccc2c(c1)C(=O)N([C@H](C)CO)C[C@@H](C)[C@H](CN(C)C(=O)Nc1ccc(C(F)(F)F)cc1)O2, the cytotoxicity call is reported as “inactive”. With C/C=C/c1ccc2c(c1)O[C@H](CN(C)Cc1ccc(C(=O)O)cc1)[C@H](C)CN([C@H](C)CO)S2(=O)=O the cytotoxicity call was “inactive”. With COc1cc(O)c2c(=O)c(O)c(-c3ccccc3)oc2c1 the cytotoxicity call was “inactive”. With O=C(O)/C=C/C(=O)N1CCN(C(=O)/C=C/C(=O)O)CC1 the cytotoxicity call was “inactive”. For CCCNC(=O)N1C[C@H](O)COC[C@H]2O[C@@H](CC(=O)NCc3ccncn3)CC[C@@H]21, the cytotoxicity call was “inactive”. CN(C)C(=O)N1CC2(CCN(S(=O)(=O)N(C)C)CC2)[C@]2(CCN(C)C2=O)C1 was tested, and the cytotoxicity call was “inactive”. In the case of CN(C)C(=O)C[C@@H]1C=C[C@@H](NC(=O)C2CC2)[C@@H](CO)O1, the cytotoxicity call is reported as “inactive”. With C[C@@H]1CN([C@H](C)CO)C(=O)c2cccc(NC(=O)Nc3ccccc3)c2O[C@H]1CN(C)CC1CCCCC1 the cytotoxicity call was “inactive”. In the case of C[C@H]1CCCCO[C@H](CN(C)Cc2ccc(C(F)(F)F)cc2)[C@@H](C)CN([C@@H](C)CO)C(=O)c2cc(NC(=O)c3ccccc3)ccc2O1, the cytotoxicity call is reported as “inactive”. For C[C@@H]1CN([C@@H](C)CO)C(=O)c2cccc(N(C)C)c2O[C@@H]1CN(C)S(=O)(=O)c1ccc(Cl)cc1, the cytotoxicity call was “inactive”. For C[C@@H]1CN([C@H](C)CO)C(=O)c2cccc(NS(C)(=O)=O)c2O[C@H]1CN(C)S(=O)(=O)c1ccc(F)cc1, the cytotoxicity call was “inactive”. In the case of CCOC(=O)Cn1cccc2oc(=O)nc1-2, the cytotoxicity call is reported as “inactive”. With COC(=O)Nc1nc2ccc(Sc3ccccc3)cc2[nH]1 the cytotoxicity call was “inactive”. In the case of O=C(NCC[C@H]1CC[C@H](NS(=O)(=O)c2cccc(F)c2)[C@H](CO)O1)C1CC1, the cytotoxicity call is reported as “inactive”. In the case of O=C(NO)c1ccc(C(=O)N/N=C/[C@H](O)[C@@H](O)[C@@H](O)[C@H](O)C(=O)O)cc1, the cytotoxicity call is reported as “inactive”. C[C@@H]1CN([C@H](C)CO)S(=O)(=O)c2ccc(-c3cncnc3)cc2O[C@H]1CN(C)C(=O)Cc1ccncc1 was tested, and the cytotoxicity call was “inactive”. Cc1noc(C)c1NC(=O)N(C)C[C@H]1OCCCC[C@@H](C)Oc2ccc(NS(=O)(=O)c3ccc(F)cc3)cc2C(=O)N([C@H](C)CO)C[C@@H]1C was tested, and the cytotoxicity call was “inactive”. For O=C(C[C@@H]1C[C@H]2c3cc(NS(=O)(=O)c4ccc(F)cc4)ccc3O[C@H]2[C@@H](CO)O1)N1CCCCC1, the cytotoxicity call was “inactive”. For C[C@@H]1CN([C@H](C)CO)C(=O)c2cc(NS(C)(=O)=O)ccc2O[C@@H]1CN(C)S(=O)(=O)c1cccs1, the cytotoxicity call was “inactive”. C[C@H](CO)N1C[C@H](C)[C@H](CN(C)Cc2ccc(-c3ccccc3)cc2)Oc2c(NC(=O)Nc3cccc4ccccc34)cccc2C1=O was tested, and the cytotoxicity call was “inactive”. C[C@@H]1CN([C@H](C)CO)C(=O)Cc2cc(NC(=O)Nc3ccccc3)ccc2O[C@@H]1CN(C)Cc1ccc(Cl)c(Cl)c1 was tested, and the cytotoxicity call was “active”. With O=C(CN1CCOCC1)NCC[C@H]1CC[C@@H](NC(=O)c2ccccc2F)[C@H](CO)O1 the cytotoxicity call was “inactive”. For CC(C)NC(=O)N(C)C[C@@H]1Oc2c(NS(=O)(=O)c3ccc(Cl)cc3)cccc2C(=O)N([C@H](C)CO)C[C@H]1C, the cytotoxicity call was “inactive”. COc1ccc(CN(C)C[C@@H]2OCCCC[C@@H](C)Oc3ccc(NC(=O)c4ccncc4)cc3C(=O)N([C@@H](C)CO)C[C@@H]2C)cc1 was tested, and the cytotoxicity call was “inactive”. In the case of CNC[C@@H]1OCCCC[C@H](C)Oc2ccc(NC(=O)Nc3ccc(C(F)(F)F)cc3)cc2C(=O)N([C@H](C)CO)C[C@H]1C, the cytotoxicity call is reported as “inactive”. For C[C@H]1CN([C@@H](C)CO)C(=O)c2cc(NC(=O)CCN3CCOCC3)ccc2O[C@@H]1CN(C)Cc1ccc2c(c1)OCO2, the cytotoxicity call was “inactive”. Cc1ccc(S(=O)(=O)N(C)C[C@@H]2Oc3c(NS(=O)(=O)c4cccs4)cccc3C(=O)N([C@H](C)CO)C[C@@H]2C)cc1 was tested, and the cytotoxicity call was “inactive”. For C[C@@H]1CCCCO[C@H](CN(C)Cc2ccncc2)[C@@H](C)CN([C@@H](C)CO)C(=O)c2cc(NC(=O)Nc3cccc4ccccc34)ccc2O1, the cytotoxicity call was “inactive”. For C[C@@H]1CN([C@H](C)CO)S(=O)(=O)c2ccc(C#Cc3ccncc3)cc2O[C@@H]1CN(C)C(=O)C1CCCCC1, the cytotoxicity call was “inactive”. With COc1ccc(S(=O)(=O)N2C[C@H](O)COC[C@@H]3O[C@@H](CC(=O)N[C@@H]4CCN(Cc5ccccc5)C4)CC[C@H]32)cc1 the cytotoxicity call was “inactive”. With Cc1noc(C)c1NC(=O)Nc1ccc2c(c1)C(=O)N([C@@H](C)CO)C[C@@H](C)[C@@H](CN(C)Cc1ccccc1)OCCCC[C@@H](C)O2 the cytotoxicity call was “inactive”. In the case of C[C@H]1CN([C@@H](C)CO)C(=O)c2cc(NC(=O)CCCN(C)C)ccc2O[C@H]1CN(C)Cc1ccc(C(=O)O)cc1, the cytotoxicity call is reported as “inactive”.
